Experimental data published in paper PMC4726241, “Crystal structure and SUMO binding of Slx1-Slx4 complex” (Scientific Reports, 2016).
Substitutions are numbered along the chain they refer to. Results are given in words; binding and its absence hold for the method and conditions named. Some entries that bind do so weakly or less than the wild type. Values belong to the binder of their own block, whether it stands above or below them.

How the values were obtained:
[1] = molecular target: T1, Slx4 C-terminal conserved domain, residues 352-419 (S. pombe) (UniProt Q9P6M0); test: co-purification; co-expressed in E. coli; HisTrap capture by His6-Slx4^CCD, thrombin cleavage, gel filtration, anion exchange (similar procedure)
T1 sequence: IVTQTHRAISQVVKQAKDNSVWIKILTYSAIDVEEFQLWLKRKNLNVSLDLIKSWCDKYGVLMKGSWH

[2] = molecular target: T2, mature Pmt3 (S. pombe SUMO), residues 1-111 (S. pombe) (UniProt O13351); test: condition: 0.81 mM complex with 0.27 mM Pmt3 (molar ratio 1:3); NMR titration; 2D 15N HSQC of 0.27 mM 15N-labelled Pmt3 with 0 to 0.81 mM complex; 298 K; 20 mM sodium phosphate pH 6.8, 100 mM NaCl, 10% D2O; both purified
T2 sequence: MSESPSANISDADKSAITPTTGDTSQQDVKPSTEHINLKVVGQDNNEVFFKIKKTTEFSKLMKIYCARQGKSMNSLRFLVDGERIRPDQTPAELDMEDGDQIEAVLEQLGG

[3] = molecular target: T1, Slx4 C-terminal conserved domain, residues 352-419 (S. pombe); test: SEC; analytical size-exclusion chromatography of the purified, co-expressed complex; both purified
[4] = molecular target: T1, Slx4 C-terminal conserved domain, residues 352-419 (S. pombe); test: crystal structure; sitting drop, 18 °C, 1.3 M ammonium sulfate, 0.1 M Bis-Tris pH 6.8; zinc SAD; 2.0 Å; both purified
[5] = molecular target: T3, Slx1^RING-Slx4^CCD complex (S. pombe) (UniProt Q9P7M3+Q9P6M0); test: condition: 2.37 mM Pmt3 injected into 120 μM complex; ITC; 2.37 mM Pmt3 injected into 120 μM complex in the cell; 25 °C; 20 mM sodium phosphate pH 6.8, 100 mM NaCl; three repeats; both purified
T3 sequence 1: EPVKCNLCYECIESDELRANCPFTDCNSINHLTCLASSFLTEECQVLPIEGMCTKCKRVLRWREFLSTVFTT
T3 sequence 2: T1 sequence

[6] = molecular target: T4, Slx1^(RING+CT SIMmut)-Slx4^CCD complex (S. pombe) (UniProt Q9P7M3+Q9P6M0); test: as above
T4 sequence 1: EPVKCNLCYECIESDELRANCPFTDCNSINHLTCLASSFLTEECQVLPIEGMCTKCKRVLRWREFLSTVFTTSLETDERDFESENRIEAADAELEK
T4 sequence 2: T1 sequence

B2: C-terminal domain of Slx1, residues 176-271, IIDLE mutated to AADAE (domain or fragment, UniProt Q9P7M3 176-271)
chain: T4 sequence 1
binding [1]: binds

B3: Slx1^(RING+CT SIMmut)-Slx4^CCD complex (complex, UniProt Q9P7M3 176-271; Q9P6M0 352-419)
chain 1: T4 sequence 1
chain 2: T1 sequence
binding [2]: no binding

B4: Slx1 C-terminal zinc finger (RING finger domain), residues 176-247 (domain or fragment, UniProt Q9P7M3 176-247)
chain: T3 sequence 1
binding [3]: binds
binding [4]: binds

B6: mature Pmt3 (S. pombe SUMO), residues 1-111 (natural protein, UniProt O13351 1-111, looked up)
chain: T2 sequence
notes: Pmt3 (SUMO), Schizosaccharomyces pombe, mature form, residues 1-111; Uniformly 15N-labelled for the NMR titrations; source: E. coli, purified by a procedure similar to that of the complex
binding [5]: no binding
binding [6]: no binding

More lines, now with the values ahead:

binding [1]: binds
B1: C-terminal domain of Slx1, residues 176-271 (domain or fragment, UniProt Q9P7M3 176-271)
chain: T4 sequence 1 with A89I, A90I, A92L

binding [2]: no binding
B5: Slx1^RING-Slx4^CCD complex (complex, UniProt Q9P7M3 176-247; Q9P6M0 352-419)
chain 1: T3 sequence 1
chain 2: T1 sequence
